# Experimental data published in the supplement of paper PMC11369174, “Proteome-scale characterisation of motif-based interactome rewiring by disease mutations” (Molecular Systems Biology, 2024).
# The other results are listed elsewhere or left out. These are enrichments in a pooled selection; single values are uncertain.
# Assays:
# Experiment in all cases: mean normalised NGS count of phage-displayed peptide after selection on bait (% of reads); baits are purified protein domains named by gene / domain / UniProt id / residues; peptides come from disordered regions of human proteins; higher = stronger enrichment / binding
# SPOP_MATH__O43791_19_176 = target: T1, SPOP_MATH__O43791_19_176
# T1 chain: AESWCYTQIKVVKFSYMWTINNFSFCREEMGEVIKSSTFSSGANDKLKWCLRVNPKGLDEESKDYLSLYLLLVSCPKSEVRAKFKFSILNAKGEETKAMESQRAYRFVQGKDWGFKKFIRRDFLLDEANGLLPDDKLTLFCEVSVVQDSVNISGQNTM
# [1] = target: T2, SIN3A_PAH__Q96ST3_295_383
# T2 chain: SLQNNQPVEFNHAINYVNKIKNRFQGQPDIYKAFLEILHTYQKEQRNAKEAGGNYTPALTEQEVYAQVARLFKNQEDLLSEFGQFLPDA
# Src_SH3__P12931_87_144 = target: Src_SH3__P12931_87_144
# SNX27_PDZ__Q96L92_40_141 = target: SNX27_PDZ__Q96L92_40_141
# [2] = replicate selections in which the peptide was seen: 6
# [3] = replicate selections in which the peptide was seen: 4
# [4] = replicate selections in which the peptide was seen: 5
# [5] = replicate selections in which the peptide was seen: 3
# [6] = replicate selections in which the peptide was seen: 2
binder,measurement,setting,value
LTVRNPNIVSSSSDTR [FSHR 554-569 wt],mean normalised NGS count,SPOP_MATH__O43791_19_176; [2],22.4
MGLLEAAARALVGAPF [PLP1 1-16 wt],mean normalised NGS count,[1]; [3],12.5
YNASVSVPDSSGPEHI [HNRNPK 72-87 mut P61978.R86H],mean normalised NGS count,SPOP_MATH__O43791_19_176; [4],2.64
ADPYRQLPYAPSVESP [CTNND2 500-515 mut Q9UQB3.Q507P],mean normalised NGS count,Src_SH3__P12931_87_144; [3],0.0682
DLDLTVQETSLQGPVG [CASR 1022-1037 mut P41180.G1031S],mean normalised NGS count,SNX27_PDZ__Q96L92_40_141; [3],0.0105
VTSSVRPDSWAALALA [GATA6 580-595 wt],mean normalised NGS count,[1]; [5],1.48
LELSVVAKEVKKAPVI [MYPN 1159-1174 wt],mean normalised NGS count,SPOP_MATH__O43791_19_176; [6],0.112
VSVPDSSGPERILSIS [HNRNPK 76-91 wt],mean normalised NGS count,SPOP_MATH__O43791_19_176; [5],1.58
VSSSSLVLYQSSDSSN [HNF1A 590-605 wt],mean normalised NGS count,SPOP_MATH__O43791_19_176; [3],0.22
ALSPGVSTSGISSSQG [ARID1A 656-671 wt],mean normalised NGS count,SPOP_MATH__O43791_19_176; [2],9.23
AGDSRGRQYQELPRAP [KCNH2 1001-1016 mut Q12809.W1001C],mean normalised NGS count,Src_SH3__P12931_87_144; [5],0.109
VTSSVLPDSWAALALA [GATA6 580-595 mut Q92908.R585L],mean normalised NGS count,SPOP_MATH__O43791_19_176; [4],0.323
ADSLWWGTITSTTIGY [KCNQ4 271-286 mut P56696.L281S],mean normalised NGS count,SPOP_MATH__O43791_19_176; [5],0.0526
NATELQIDSASSSEQI [BRCA1 635-650 mut P38398.E649Q],mean normalised NGS count,SPOP_MATH__O43791_19_176; [5],1.82
MDVLVSEASARLLQQE [RARS1 1-16 wt],mean normalised NGS count,[1]; [4],16.8
RGPGLLPLLAALAWFS [TTC19 52-67 wt],mean normalised NGS count,[1]; [6],0.19
SVSLKLEESKATSSSN [ATRX 1978-1993 wt],mean normalised NGS count,SPOP_MATH__O43791_19_176; [6],0.136
LTVRNPNIVSSSSNTR [FSHR 554-569 mut P23945.D567N],mean normalised NGS count,SPOP_MATH__O43791_19_176; [4],0.264
MAVLVSEASARLLQQE [RARS1 1-16 mut P54136.D2A],mean normalised NGS count,[1]; [5],0.336
SSVKVTSSIPVFDLQD [POGZ 356-371 mut Q7Z3K3.M358V],mean normalised NGS count,SPOP_MATH__O43791_19_176; [3],0.217
HWTINKEIKETEFKGI [AHI1 786-801 wt],mean normalised NGS count,SNX27_PDZ__Q96L92_40_141; [6],0.00638
LMPEEAWLLAEIGAVT [TSEN34 52-67 mut Q9BSV6.R58W],mean normalised NGS count,[1]; [5],3.32
ALSPGVSTSGISISQG [ARID1A 656-671 mut O14497.S668I],mean normalised NGS count,SPOP_MATH__O43791_19_176; [2],1.82
YLSLLQAATFKGWMDI [SCN1A 1422-1437 mut P35498.V1428A],mean normalised NGS count,[1]; [5],0.0179
YLSLLQAATFKGWMDI [SCN4A 1422-1437 mut P35498.V1428A],mean normalised NGS count,[1]; [5],0.0179
EEDGVSSTSPMEVLDR [TSC1 636-651 mut Q92574.P641S],mean normalised NGS count,SPOP_MATH__O43791_19_176; [3],6.11
EQLSENAAISETSFSS [ASXL3 600-615 wt],mean normalised NGS count,SNX27_PDZ__Q96L92_40_141; [2],49.2
YLSLLQAATFKGWMDI [SCN2A 1422-1437 mut P35498.V1428A],mean normalised NGS count,[1]; [5],0.0179
LEEWLRQEMEVQNQHA [NBN 719-734 wt],mean normalised NGS count,[1]; [3],0.16
VTVETHPVQETTFHVA [DYRK1A 577-592 wt],mean normalised NGS count,SNX27_PDZ__Q96L92_40_141; [6],0.00342
PLPSPPAGTLTAELKS [CACNA1H 684-699 wt],mean normalised NGS count,Src_SH3__P12931_87_144; [4],0.0246
SVPAPLPSPPAGTLTA [CACNA1H 680-695 wt],mean normalised NGS count,Src_SH3__P12931_87_144; [4],0.067
ETVGAALLLNLLAGLG [GPIHBP1 162-177 wt],mean normalised NGS count,[1]; [6],0.155
STTAPPVQTPLPVIPH [LDB3 90-105 wt],mean normalised NGS count,Src_SH3__P12931_87_144; [3],0.00826
ADSTVVMEEGSPGEVP [TSC2 1294-1309 mut P49815.A1297T],mean normalised NGS count,SPOP_MATH__O43791_19_176; [4],0.245
SGPESSVKVTSSIPVF [POGZ 352-367 mut Q7Z3K3.M358V],mean normalised NGS count,SPOP_MATH__O43791_19_176; [5],0.104
VSVPDSSDPERILSIS [HNRNPK 76-91 mut P61978.G83D],mean normalised NGS count,SPOP_MATH__O43791_19_176; [5],0.0702
NINEVGSSTNEVGSSI [BRCA1 1043-1058 wt],mean normalised NGS count,SPOP_MATH__O43791_19_176; [5],0.00526
TPLPVIPHQKDPALDT [LDB3 98-113 wt],mean normalised NGS count,Src_SH3__P12931_87_144; [6],0.0772
EVTTTTTTITEKHKLN [ANK2 819-834 wt],mean normalised NGS count,SPOP_MATH__O43791_19_176; [3],1.23
QLSPIQLPQSSSGNTI [SALL1 315-330 mut Q9NSC2.P317S],mean normalised NGS count,SPOP_MATH__O43791_19_176; [3],0.076
YNASVSVPDSSGPERI [HNRNPK 72-87 wt],mean normalised NGS count,SPOP_MATH__O43791_19_176; [6],0.00514
SLPELPLQTQDAADGE [ANKRD11 2137-2152 mut Q6UB99.K2146Q],mean normalised NGS count,Src_SH3__P12931_87_144; [3],0.14
PPPPLPPQQHQPAQPG [KCNC3 32-47 mut Q14003.Q41H],mean normalised NGS count,Src_SH3__P12931_87_144; [6],0.208
GTRPGLEELYWLATLQ [NRL 64-79 wt],mean normalised NGS count,[1]; [3],0.282
RQLPYAPSVESPYSKS [CTNND2 504-519 mut Q9UQB3.Q507P],mean normalised NGS count,Src_SH3__P12931_87_144; [5],0.0234
QLPKVPEMKLPKMPEM [PRX 658-673 wt],mean normalised NGS count,Src_SH3__P12931_87_144; [3],0.00865
LFDSLYFAIVTLSTVG [KCNT2 229-244 mut Q6UVM3.F240L],mean normalised NGS count,[1]; [6],1.2
QNSPWKETSLDHPYEK [INAVA 320-335 wt],mean normalised NGS count,SNX27_PDZ__Q96L92_40_141; [5],0.0118
NSWNSLVLADSHGDII [GATA4 425-440 mut P43694.D425N],mean normalised NGS count,SPOP_MATH__O43791_19_176; [6],0.00452
LQPAHGLSASPTVSSS [HNF1A 578-593 mut P20823.R583G],mean normalised NGS count,SPOP_MATH__O43791_19_176; [3],0.0859
PFVPGGPPPITLPTAP [RERE 1038-1053 mut Q9P2R6.P1049L],mean normalised NGS count,Src_SH3__P12931_87_144; [5],0.909
EGVPLISLPAVPQGGS [SZT2 1830-1845 mut Q5T011.R1839C],mean normalised NGS count,Src_SH3__P12931_87_144; [3],0.0649
LQPAHRLSASPTVSSS [HNF1A 578-593 wt],mean normalised NGS count,SPOP_MATH__O43791_19_176; [5],0.193
TVAELVEAHTNFGFQP [SCNN1B 577-592 wt],mean normalised NGS count,SPOP_MATH__O43791_19_176; [4],0.324
LMSIEVLLLVVRHLSL [PKHD1 8-23 mut P08F94.A17V],mean normalised NGS count,[1]; [6],19.7
EQLLENAAISETSFSS [ASXL3 600-615 mut Q9C0F0.S603L],mean normalised NGS count,SNX27_PDZ__Q96L92_40_141; [2],50
